From ChEMBL document CHEMBL4888484, “Replenishing the malaria drug discovery pipeline: Screening and hit evaluation of the MMV Hit Generation Library 1 (HGL1) against asexual blood stage Plasmodium falciparum ,using a nano luciferase reporter read-out” (2022)
The campaign covered roughly 150,000 compounds. About 540 (0.36%) showed an effect of 50% or more. This is one part of the list.

test system: Plasmodium falciparum; test: Primary screen in NF54 nanoGlo assay, in single point, at 2uM, 72h; a lower Z score goes with more inhibition; type: functional, Erythrocyte; conditions: timepoint 72 hour

| Structure (SMILES) | % Inhibition [%] | Z score |
| --- | --- | --- |
| CC(=O)N(C)c1ccc(C(=O)N2Cc3cc(C)ccc3CC2(C)C)cc1 | -10 | 1.92 |
| Cc1cnc(OC2CCN(Cc3cc(O)nc(-c4ccccc4)n3)CC2)nc1 | -10 | 1.72 |
| Cc1ccccc1N1CCC(N[C@H]2CCCNC2=O)CC1 | -14 | 1.57 |
| Cc1cc2ccccc2nc1N1CCN([C@H]2CCS(=O)(=O)C2)CC1 | -9 | 0.75 |
| Cc1cc(F)cc(CN2CCCn3nc(CNC(=O)C4CCC4)cc3C2)c1 | -4 | 0.79 |
| Cc1nc2ccccc2n1CCc1noc([C@H]2CCCOC2)n1 | -7 | 1.3 |
| CC(C)Cn1ncnc1CN1CCC[C@H](c2c[nH]c3ncccc23)C1 | 3 | -0.48 |
| CN(Cc1ccc2nonc2c1)C(=O)NCCCn1ccnn1 | -9 | 1.63 |
| Cc1cc(C2CC2)ncc1Br | 9 | -1.42 |
| Cc1cc(N[C@H]2CN(C(=O)[C@@H]3C[C@H]3C)C[C@@H]2C(F)(F)F)c(C#N)cn1 | -1 | 0.1 |
| CCn1ncc(NCc2cccc3[nH]ccc23)c1C | -32 | 3.81 |
| CC(Nc1cnn(-c2ccccc2S(C)(=O)=O)c1)[C@@H]1C[C@H]1C1CC1 (some centres not stated) | -5 | 0.59 |
| O=C(c1ccco1)N(Cc1ccccc1OS(=O)(=O)c1cccc(C(F)(F)F)c1)C[C@H]1CCCO1 | -5 | 0.9 |
| CC(C)c1nnsc1CNC(=O)[C@@H]1CCCCN1C | -14 | 1.73 |
| CC(C)C[C@H](N)C(=O)N1CCC(C)C1C (some centres not stated) | -9 | 1.36 |
| CCCN1C[C@@H](NS(=O)(=O)c2cccnc2)CC1=O | -4 | 0.74 |
| COC(=O)C1CCc2nnc(C(C)Oc3cccc(Cl)c3)n2C1 (configuration not stated) | 12 | -1.58 |
| Cc1ccsc1CCC(=O)N1C2CCC1CC(n1ccnn1)C2 (configuration not stated) | -6 | 0.96 |
| Cc1nc2c(c(=O)n1C)CN(C(=O)Nc1ccnn1C1CCCCC1)C2 | 5 | -0.96 |
| COc1cccc(-c2nc3ccc(-c4ccccc4)cn3c2CN2CCN(S(=O)(=O)c3ccccc3OC(F)(F)F)CC2)c1 | -6 | 0.66 |
| CC1CN(Cc2ncnn2C)CC(C)N1Cc1ncnn1C (configuration not stated) | -1 | 0.11 |
| CCn1c(CO)nnc1[C@H]1C[C@@H](NC(=O)c2ccncc2Cl)C1 | -24 | 3.06 |

| Structure (SMILES) | % Inhibition [%] | Z score |
| --- | --- | --- |
| CC(C)Cc1cc(C(=O)NCCN2CCOCC2)nc(=O)[nH]1 | -11 | 1.26 |
| CCCCN=C(NCCc1ccn(C(C)C)n1)NCc1nccn1C | 9 | -1.15 |
| COc1ccc(C(=O)N2CCCn3nc(-c4cccs4)cc3C2)cn1 | -7 | 1.34 |
| O=C(NCCc1ccccc1)c1c(-c2ccccc2)n(Cc2cccs2)c(=O)n1CCN1CCOCC1 | -17 | 1.47 |
| CC(C)(C)c1cc2nc(C(=O)NCCc3ccccn3)cc(-c3ccccc3F)n2n1 | -14 | 2.06 |
| Cc1ccc(C)n1-c1ccc(Cl)c(C(=O)NC[C@H]2COCCO2)c1 | 31 | -4.2 |
| O=C(Cc1cccnc1)N(CCO)C1CCC1 | 7 | -1.17 |
| CCCCCc1nnc(NC(=O)C[C@H]2C(=O)N(C)C(=O)N2C)s1 | -7 | 1.21 |
| CCOCCC(=O)N1CCC2(CC1)C[C@H](c1ccccc1)C(=O)N2C | -2 | 0.27 |
| O=C1CC(CC(=O)N2CCCCC2CO)(c2ccccc2)C(=O)N1Cc1cccs1 (configuration not stated) | -8 | 1.54 |
| O=C(c1cccc(Cl)c1)N1CCC[C@H]1c1ccsc1 | -4 | 0.55 |
| Cc1ccc(/C(N)=N/NC(=O)OC(C)(C)C)cc1F | 2 | -0.27 |
| O=c1nc(CNC(Cc2ccc(F)cc2)C2COc3ccccc3O2)[nH][nH]1 (configuration not stated) | -6 | 0.93 |
| CN(C(=O)c1cccc(-c2ccoc2)c1)C1CCS(=O)(=O)CC1 | -2 | 0.29 |
| Cc1cc(C)c(C)c(C(=O)NCCC(=O)N2CCN(C(C)C)CC2)c1C | -7 | 1.05 |
| CN1CCC(C)(C(=O)NCCc2c[nH]cn2)CC1 | -9 | 1.63 |
| Cc1ocnc1CNC(=O)C[C@H](C)c1ccc(F)cc1F | -11 | 1.08 |
| Clc1ccccc1[C@@H]1C=C(c2ccc(-c3ccccc3)cc2)Nc2nnnn21 | -5 | 0.52 |
| CCCNC(=O)C1CCN(c2nc3ncn(CC(=O)NCc4ccccc4)c(=O)c3s2)CC1 | -13 | 2.02 |
| c1ccc(Cn2c3c(c4ccccc42)CNCCC3)nc1 | -10 | 1.27 |
| CCCNC(=O)C1C(c2cccc(NC(=O)c3ccc(OC)cc3)c2)OC(=O)N1Cc1ccc(C)cc1 (configuration not stated) | -14 | 1.33 |
| Cc1n[nH]c2c1CN(Cc1nncn1C(C)C)CC2 | -5 | 0.99 |

| Structure (SMILES) | % Inhibition [%] | Z score |
| --- | --- | --- |
| COC(=O)c1cn(Cc2cccnc2)cc2c(O)nnc1-2 | 0 | -0.02 |
| Cc1nc2cc(C(=O)O)ccc2n1Cc1ccsc1 | -20 | 2.66 |
| O=S(=O)(NC[C@@H]1CCCN2CCCC[C@H]12)c1ccc2[nH]cnc2c1 | -13 | 1.7 |
| COc1ccc(Cl)cc1NC(=O)Cn1nc(-c2ccc3c(c2)OCCO3)ccc1=O | -5 | 0.42 |
| CC(C)(C(=O)Nc1cn[nH]c1)C(F)F | -6 | 0.7 |
| C[C@H]1CN(Cc2nc(C3CCCCC3)cs2)S(=O)(=O)C1 | -8 | 1.28 |
| CCc1nc2c(s1)[C@@H](N(C)CCC(=O)Nc1cc(C)on1)CCC2 | -2 | 0.33 |
| CC(C)c1cc(C(=O)N2CCC[C@@](CO)(CCCc3ccccc3)C2)on1 | 4 | -0.59 |
| O=C(COc1ccccc1F)N(CC(F)(F)F)C1CCOCC1 | -9 | 1.05 |
| CN(C)CCN(Cc1ccco1)C(=O)c1c2c(nc3ccccc13)C(=O)N(C1CCCCC1)C2 | -8 | 0.89 |
| CC(C)(C)CC(=O)N1CCc2ncncc2C1 | 0 | 0.07 |
| O=C(NC1(CCO)CCOCC1)c1nc(C2CC2)n2ccccc12 | 5 | -0.68 |
| Cc1nn(C)c(Cl)c1C(=O)NCCCN(C)c1ccccc1 | -6 | 1.21 |
| CC(=O)N(CC(C)(C)CC=C(C)C)C1CCCCC1 | 8 | -0.76 |
| Cc1cccc(C2(c3cccc(C)c3)CC2C(=O)NCC2CCCO2)c1 (configuration not stated) | 0 | 0.03 |
| CCN(CC1COc2ccccc2O1)C(=O)NC(C)c1ccccn1 (configuration not stated) | -11 | 1.77 |
| Cc1cnc(C(=O)N2CCC[C@H]2c2nc(C3CCOCC3)no2)cn1 | 34 | -4.99 |
| CN(C)c1ncccc1NC(=O)c1ccc(C#N)cc1 | -1 | 0.24 |
| O=C(c1ccc(Cl)cc1OC1CCN(Cc2ccco2)CC1)N1CCCCC1 | -2 | 0.31 |
| Cc1ccc(N(CC(=O)N2CCCCC2)C(=O)c2ccc(C)nc2C)cc1 | -2 | 0.31 |
| Cc1csc(C(=O)N2CC(n3cc(C4CC4)nn3)C2)c1 | -17 | 1.94 |
| N#Cc1cnc(N2CCC(n3cc(Br)cn3)CC2)cn1 | -4 | 0.66 |

| Structure (SMILES) | % Inhibition [%] | Z score |
| --- | --- | --- |
| Cn1ccnc1C1(O)CCN(c2ccc(C(F)(F)F)cn2)CC1 | -4 | 0.42 |
| CC(C)CN1CCCn2nc(CNC(=O)[C@H](C)Oc3ccccc3)cc2C1 | -11 | 2.27 |
| N[C@H]1CC[C@@H](n2ccnc2-c2ccc3cccc(Cl)c3n2)CC1 | 6 | -0.85 |
| Nc1c2c(-c3ccccc3Cl)nc(NC3CC3)nc2nn1-c1ccccc1 | -17 | 1.62 |
| OC(COCc1ccccc1)CN1CCCC1c1nnc2ccccn12 (configuration not stated) | -6 | 0.55 |
| Cc1cccc(CC2(NC(=O)CC3CCN(C)CC3)CC2)c1 | -1 | 0.14 |
| Cc1ccc(CCC(=O)N2CC[C@H](O)C23CCCC3)cc1 | -5 | 0.77 |
| O=C(Cn1c(-c2ccco2)nn(-c2ccc(Cl)cc2)c1=O)NC1CC1 | -7 | 0.61 |
| CC(CS(C)(=O)=O)N(C)C(=O)NC(Cc1ccccc1)C1CC1 (configuration not stated) | 11 | -2.04 |
| Cc1cc(Cl)ccc1S(=O)(=O)Nc1cc(N2CCNC2=O)ccc1F | 4 | -0.34 |
| O=C(CS(=O)(=O)CC1CCCCC1)Nc1ccc2c(c1)OCCCO2 | 7 | -0.88 |
| COCC(=O)N1CCC(Oc2ccc(C)nn2)CC1 | -16 | 3.06 |
| Clc1cc2c(c(CN3CCC(Cc4ccccc4)CC3)c1)OCOC2 | -1 | 0.13 |
| O=C(C[C@H]1CCOC1)N1CCC12CCC2 | 8 | -0.88 |
| CN(c1ncccc1C#N)C1CN(c2ccc3nncn3n2)C1 | -10 | 1.44 |
| O=C(c1ccccc1F)N1CCc2oncc2C1 | -3 | 0.42 |
| Cc1ccc(NS(=O)(=O)c2cc(C(=O)NC3CCCCCC3)ccc2Cl)cc1C | -13 | 1.44 |
| Cc1nc[nH]c1-c1nnc(N2CCN(c3ccccc3)CC2)n1C | -4 | 0.66 |
| CCc1nc(CC)n(CC(=O)Nc2ccc(C(C)=O)cc2)n1 | 33 | -3.75 |
| Cc1csc(NC(=O)[C@@H]2CCC[C@@H](NCc3cccnc3)CN(C)C(=O)C2)n1 | -2 | 0.23 |
